Read-outs that look alike come from different tables or passages of the source.
Tests used:
[1] = target: EGFR-HER3 protein-protein interactions (Homo sapiens, UniProt P00533+P21860)
[2] = system: EGFR downstream signaling pathways
[3] = SAS and HSC3, post-treatment 15 μM 30 min after EGF 10 ng/ml 15 min

Structure (SMILES) | EGFR-HER3 protein-protein interactions ([1]; HSC3, PCP alone, pre-treatment and post-treatment) | EGFR-HER3 protein-protein interactions ([1]; HSC3 and SAS, pre-treatment 15 μM 30 min, then EGF 10 ng/mL 15 min) | EGFR downstream protein expression levels ([2]; HSC3, SAS, FaDu, 5, 10, 15 μM 30 min, then EGF 10 ng/ml 15 min) | PI3K/AKT downstream protein expression levels ([2]; HSC3, pre-treatment 15 μM 30 min, then EGF 10 ng/ml 15 min) | AKT activation [2, 3] | EGFR activation [2, 3] | activation of EGFR downstream proteins ([2]; SAS and HSC3, pre-treatment 15 μM 30 min, then EGF 10 ng/ml 15 min) | extent of inhibition on AKT activation compared with PCP ([2]; HSC3) | expressions of p-EGFR/EGFR, p-AKT/AKT, and p-ERK/ERK ([2]; HSC3, 10, 15 μM 30 min, EGF 10 ng/mL)
CN1CCN(CCCN2c3ccccc3Sc3ccc(Cl)cc32)CC1 [PCP, Prochlorperazine] | effectively inhibited | could suppress EGFR-HER3 protein-protein interactions | suppressed EGFR downstream protein expression levels | effectively suppressed | did inhibit AKT activation | did not impede EGFR activation | effectively inhibited | – | –
CSc1ccc2c(c1)N(CCC1CCCCN1C)c1ccccc1S2 (stereo not drawn) [THD, Thioridazine] | – | – | – | – | – | – | – | not as potent as that observed with PCP | could suppress

From patent US20250044294A1, “COMPOSITION AND METHOD OF TREATING A CANCER THROUGH AFFECTING MEMBRANE RECEPTORS OF CANCER CELLS AND THEIR DERIVED EXTRACELLULAR VESICLES” (National Yang Ming Chiao Tung University, priority 2023, published 2025)
